In the supplement of paper PMC4604168 (melanoma cell lines):
Some of the results follow. Repeats are few or missing, and single values can be far off.

test system: WM451Lu; assay: cell count relative to DMSO control; melanoma cells; higher = more viable cells; settings: library dose: standard library concentration; 72 h
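Note: cells treated in 1,536-well plates, then fixed and DAPI-stained, with nuclei counted from automated high-throughput microscope images.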

SMILES | cell count [%]
C[C@]1(O)C[C@@H](c2nc(-c3ccc4ccc(-c5ccccc5)nc4c3)c3c(N)nccn32)C1 + Cn1c(Nc2ccc(C(F)(F)F)cc2)nc2cc(Oc3ccnc(-c4ncc(C(F)(F)F)[nH]4)c3)ccc21 [CHIR265] (first compound 2 µM, partner dose 0.4 µM) | 49
Cn1cnc2c(F)c(Nc3ccc(Br)cc3Cl)c(C(=O)NOCCO)cc21 [selumetinib] + NC(=O)c1ccc(N(C(N)=O)c2c(F)cccc2F)nc1-c1ccc(F)cc1F [VX702] (first compound 0.075 µM, partner dose 2 µM) | 80.3
Cn1cnc2c(F)c(Nc3ccc(Br)cc3Cl)c(C(=O)NOCCO)cc21 [selumetinib] + CC(=O)O[C@@]12CO[C@@H]1C[C@H](O)[C@@]1(C)C(=O)[C@H](O)C3=C(C)[C@@H](OC(=O)[C@H](O)[C@@H](NC(=O)OC(C)(C)C)c4ccccc4)C[C@@](O)([C@@H](OC(=O)c4ccccc4)[C@H]21)C3(C)C [Docetaxel] (first compound 0.075 µM, partner dose 0.0005 µM) | 21.6
Cn1cnc2c(F)c(Nc3ccc(Br)cc3Cl)c(C(=O)NOCCO)cc21 [selumetinib] + Clc1ccc(Nc2nnc(Cc3ccncc3)c3ccccc23)cc1 [vatalanib] (first compound 0.075 µM, partner dose 10 µM) | 81.7
COc1cc([C@@H]2c3cc4c(cc3[C@@H](O[C@@H]3O[C@@H]5CO[C@@H](C)O[C@H]5[C@H](O)[C@H]3O)[C@H]3COC(=O)[C@H]23)OCO4)cc(OC)c1O [etoposide] + Cc1ccc(Nc2nccc(N(C)c3ccc4c(C)n(C)nc4c3)n2)cc1S(N)(=O)=O [Pazopanib] (first compound 0.1 µM, partner dose 2 µM) | 76.1
CCN(CC)CCNC(=O)c1c(C)[nH]c(/C=C2\C(=O)Nc3ccc(F)cc32)c1C [sunitinib] + CNC(=O)c1cc(Oc2ccc(NC(=O)Nc3ccc(Cl)c(C(F)(F)F)c3)cc2)ccn1 [sorafenib] (first compound 2 µM, partner dose 2 µM) | 66.4
Cn1cnc2c(F)c(Nc3ccc(Br)cc3Cl)c(C(=O)NOCCO)cc21 [selumetinib] + Nc1ccn([C@@H]2O[C@H](CO)[C@@H](O)C2(F)F)c(=O)n1 [gemcitabine] (first compound 0.075 µM, partner dose 0.002 µM) | 50.1
